Among the data in the antibiotic and cytotoxicity screens of Wong et al. (2023) are cytotoxicity call and growth inhibition call values, retold here.

The other results are listed elsewhere or left out.

The subject of one assay is HSkMC. The assay can be described thus: cytotoxicity call (relative viability < 0.9). The following applies: 10 µM.
A further assay concerns HepG2. As to the kind of experiment: cytotoxicity call (relative viability < 0.9). The conditions noted are these: 10 µM.
Another assay concerns S. aureus RN4220. As to the kind of experiment: growth inhibition call (relative growth <= 0.2). The following applies: 50 µM.

Turning to `COCC(=O)N1C[C@H](C)[C@@H](OC)CN(C)C(=O)c2ccc(NC(=O)c3ccc(F)cc3)cc2OC[C@H]1C`, the cytotoxicity call in the assay on HSkMC and in the assay with HepG2 was “inactive” throughout. For the same molecule, the growth inhibition call with S. aureus RN4220 is “inactive”.
As for `C[C@H]1CCCCO[C@@H](CN(C)C(=O)CCC(F)(F)F)[C@@H](C)CN([C@@H](C)CO)C(=O)c2cc(NC(=O)c3ccccc3)ccc2O1`, the cytotoxicity call with HSkMC and with HepG2 was “inactive” each time. For the same molecule, the growth inhibition call in the assay on S. aureus RN4220 was “inactive”.
On to `CC(C)CC#Cc1ccc2c(c1)O[C@@H](CN(C)C(=O)Cc1cccnc1)[C@H](C)CN([C@@H](C)CO)S2(=O)=O`, for which the cytotoxicity call in the assay on HSkMC and in the assay with HepG2 was “inactive” in each case. In the assay on S. aureus RN4220, the growth inhibition call is “inactive”.
Consider `CO[C@@]1(C2=NCCN2)COc2ccccc2O1`, for which the cytotoxicity call with HSkMC and in the assay with HepG2 was “inactive” in each case. For the same molecule, the growth inhibition call in the assay on S. aureus RN4220 was “inactive”.
On to `O=C(C[C@H]1C[C@@H]2c3cc(NS(=O)(=O)c4ccc(F)cc4)ccc3O[C@@H]2[C@@H](CO)O1)N1CCOCC1`, for which the cytotoxicity call in the assay on HSkMC and in the assay on HepG2 was “inactive” in each case. The growth inhibition call in the assay with S. aureus RN4220 was “inactive”.
Turning to `C[C@@H]1CN([C@H](C)CO)C(=O)c2cccc(NC(=O)C3CCCCC3)c2O[C@@H]1CN(C)Cc1ccc(-c2ccccc2)cc1`, the cytotoxicity call in the assay with HSkMC and with HepG2 was “inactive” in each case. Moreover, the growth inhibition call in the assay with S. aureus RN4220 is “inactive”.
Regarding `CO[C@H]1CN(C)C(=O)c2ccc(NS(=O)(=O)c3ccccc3)cc2OC[C@@H](C)N(C(=O)NC(C)C)C[C@H]1C`, the cytotoxicity call in the assay with HSkMC and in the assay with HepG2 was “inactive” each time. In addition, the growth inhibition call with S. aureus RN4220 was “inactive”.
On to `COCCNC(=O)C[C@H]1CC[C@H](NS(=O)(=O)c2ccc(C)cc2)[C@H](CO)O1`, for which the cytotoxicity call in the assay with HSkMC and in the assay on HepG2 was “inactive” each time. Further, the growth inhibition call with S. aureus RN4220 was “inactive”.
For the molecule `CC(C)NC(=O)N(C)C[C@@H]1OCc2cnnn2CCCC(=O)N([C@H](C)CO)C[C@H]1C`, the cytotoxicity call in the assay with HSkMC and with HepG2 was “inactive” in each case. Besides, the growth inhibition call in the assay with S. aureus RN4220 was “inactive”.
With `C[C@@H]1CN([C@@H](C)CO)C(=O)c2cc(C#Cc3ccncc3)cnc2O[C@@H]1CN(C)S(=O)(=O)c1ccccc1F`, the cytotoxicity call in the assay with HSkMC and with HepG2 was “inactive” in each case. In addition, the growth inhibition call with S. aureus RN4220 is “inactive”.
On to `O=C(O)c1cc(=O)c2cccc(O)c2[nH]1`, for which the cytotoxicity call with HSkMC and in the assay with HepG2 was “inactive” throughout. The growth inhibition call with S. aureus RN4220 was “inactive”.
Take `O=C(O)c1cccnc1`: the cytotoxicity call in the assay with HSkMC and in the assay on HepG2 was “inactive” throughout. In the assay with S. aureus RN4220, the growth inhibition call was “inactive”.
On to `O=C1CN(S(=O)(=O)Cc2ccccc2)C[C@H]2[C@@H](c3ccc(C#Cc4cccc(F)c4)cc3)[C@@H](CO)N12`, for which the cytotoxicity call in the assay on HSkMC and with HepG2 was “inactive” throughout. In the assay on S. aureus RN4220, the growth inhibition call is “inactive”.
In the case of `COc1ccc(NC(=O)Nc2ccc3c(c2)CC(=O)N([C@H](C)CO)C[C@@H](C)[C@H](CN(C)C(=O)Nc2ccc(C(F)(F)F)cc2)O3)cc1`, the cytotoxicity call in the assay on HSkMC and in the assay with HepG2 was “inactive” throughout. For the same molecule, in the assay on S. aureus RN4220, the growth inhibition call is “inactive”.
For the molecule `CN1C(=O)c2cc(NC(=O)c3cnccn3)ccc2OC[C@H]2O[C@@H](CC(=O)NCC3CCCCC3)CC[C@@H]21`, the cytotoxicity call in the assay with HSkMC and with HepG2 was “inactive” in each case. For the same molecule, the growth inhibition call in the assay on S. aureus RN4220 was “inactive”.
Consider `COc1ccc(S(=O)(=O)N[C@@H]2C=C[C@@H](CC(=O)NCCc3ccncc3)O[C@@H]2CO)cc1`, for which the cytotoxicity call in the assay with HSkMC and with HepG2 was “inactive” in each case. Further, the growth inhibition call in the assay with S. aureus RN4220 was “inactive”.
Regarding `O=C(C[C@@H]1C[C@H]2c3cc(NS(=O)(=O)c4ccc(F)cc4)ccc3O[C@H]2[C@@H](CO)O1)NC1CCCC1`, the cytotoxicity call in the assay with HSkMC and with HepG2 was “inactive” in each case. Further, the growth inhibition call with S. aureus RN4220 was “inactive”.
Take `C[C@H]1CN([C@@H](C)CO)C(=O)c2cccc(NC(=O)Nc3ccc(F)cc3)c2O[C@@H]1CN(C)Cc1ccc(C(F)(F)F)cc1`: the cytotoxicity call with HSkMC is “active”. For the same molecule, the cytotoxicity call with HepG2 was “inactive”. In the assay on S. aureus RN4220, the growth inhibition call is “inactive”.
As to `O=C(C[C@@H]1CC=CC[C@H](NC(=O)OCC2c3ccccc3-c3ccccc32)C(=O)OC[C@@H](Cc2c[nH]c3ccccc23)NC1=O)N[C@@H](CO)Cc1ccccc1`, the cytotoxicity call in the assay on HSkMC and with HepG2 was “inactive” throughout. Also, the growth inhibition call in the assay with S. aureus RN4220 is “inactive”.
`O=C1CNc2cc(C(=O)O)ccc2N1`: the cytotoxicity call in the assay on HSkMC and in the assay with HepG2 was “inactive” each time. Besides, the growth inhibition call in the assay on S. aureus RN4220 was “inactive”.
`CC(C)NC(=O)N(C)C[C@H]1Oc2ccc(NC(=O)Nc3ccc4c(c3)OCO4)cc2CC(=O)N([C@@H](C)CO)C[C@@H]1C`: the cytotoxicity call in the assay with HSkMC and in the assay on HepG2 was “inactive” throughout. For the same molecule, the growth inhibition call with S. aureus RN4220 is “inactive”.
Turning to `COCC#Cc1cnc2c(c1)C(=O)N([C@@H](C)CO)C[C@@H](C)[C@H](CN(C)C(C)=O)O2`, the cytotoxicity call in the assay on HSkMC and in the assay on HepG2 was “inactive” in each case. Also, the growth inhibition call in the assay on S. aureus RN4220 is “inactive”.
Turning to `O=C1C[C@H]2[C@@H](CCN2c2cnccn2)N1`, the cytotoxicity call in the assay on HSkMC and in the assay with HepG2 was “inactive” in each case. Further, the growth inhibition call with S. aureus RN4220 is “inactive”.
For the molecule `COC(=O)CCCCCCC(=O)NN`, the cytotoxicity call in the assay on HSkMC (human skeletal muscle cells) and in the assay on HepG2 was “inactive” each time. In the assay with S. aureus RN4220, the growth inhibition call is “inactive”.
As for `CCOC(=O)c1cn(C[C@H](Cc2ccccc2)NC(=O)N[C@H](CO)CCc2oc(C(C)=O)c(C(=O)OC)c2C(=O)OC)nn1`, the cytotoxicity call in the assay with HSkMC and in the assay on HepG2 was “inactive” throughout. For the same molecule, the growth inhibition call in the assay with S. aureus RN4220 is “inactive”.
For `C[C@H]1CN([C@@H](C)CO)S(=O)(=O)c2ccc(-c3cncnc3)cc2O[C@H]1CN(C)C(=O)c1cccc(F)c1`, the cytotoxicity call in the assay with HSkMC and in the assay with HepG2 was “inactive” each time. The growth inhibition call with S. aureus RN4220 was “inactive”.
Take `C[C@H](CO)N1C[C@H](C)[C@@H](CN(C)C(=O)CN2CCOCC2)Oc2ncc(C#C[C@@H](C)O)cc2C1=O`: the cytotoxicity call with HSkMC and in the assay with HepG2 was “inactive” each time. In the assay on S. aureus RN4220, the growth inhibition call was “inactive”.
Turning to `C[C@@H]1CN([C@@H](C)CO)C(=O)c2cc(NC(=O)Nc3ccccc3)ccc2O[C@@H](C)CCCCO[C@H]1CN(C)C(=O)Cc1ccccc1`, the cytotoxicity call in the assay with HSkMC and in the assay on HepG2 was “inactive” each time. In addition, the growth inhibition call in the assay on S. aureus RN4220 is “inactive”.
Turning to `C[C@@H]1CN([C@@H](C)CO)C(=O)c2cc(-c3ccncc3)cnc2O[C@@H]1CN(C)S(=O)(=O)c1ccccc1`, the cytotoxicity call with HSkMC and in the assay with HepG2 was “inactive” throughout. Moreover, the growth inhibition call with S. aureus RN4220 is “inactive”.
